Data: publication PMC11538714
Results are given in words; binding and its absence hold for the method and conditions named. For part of these data: Binding seen in cells or lysates may run through a third protein. Some binding calls cover weakened binding; strength is not graded here. One block for each substance: values may come before it.

Chains of the proteins cited; added tags and fusions are not shown.
UniProt Q8NEB9: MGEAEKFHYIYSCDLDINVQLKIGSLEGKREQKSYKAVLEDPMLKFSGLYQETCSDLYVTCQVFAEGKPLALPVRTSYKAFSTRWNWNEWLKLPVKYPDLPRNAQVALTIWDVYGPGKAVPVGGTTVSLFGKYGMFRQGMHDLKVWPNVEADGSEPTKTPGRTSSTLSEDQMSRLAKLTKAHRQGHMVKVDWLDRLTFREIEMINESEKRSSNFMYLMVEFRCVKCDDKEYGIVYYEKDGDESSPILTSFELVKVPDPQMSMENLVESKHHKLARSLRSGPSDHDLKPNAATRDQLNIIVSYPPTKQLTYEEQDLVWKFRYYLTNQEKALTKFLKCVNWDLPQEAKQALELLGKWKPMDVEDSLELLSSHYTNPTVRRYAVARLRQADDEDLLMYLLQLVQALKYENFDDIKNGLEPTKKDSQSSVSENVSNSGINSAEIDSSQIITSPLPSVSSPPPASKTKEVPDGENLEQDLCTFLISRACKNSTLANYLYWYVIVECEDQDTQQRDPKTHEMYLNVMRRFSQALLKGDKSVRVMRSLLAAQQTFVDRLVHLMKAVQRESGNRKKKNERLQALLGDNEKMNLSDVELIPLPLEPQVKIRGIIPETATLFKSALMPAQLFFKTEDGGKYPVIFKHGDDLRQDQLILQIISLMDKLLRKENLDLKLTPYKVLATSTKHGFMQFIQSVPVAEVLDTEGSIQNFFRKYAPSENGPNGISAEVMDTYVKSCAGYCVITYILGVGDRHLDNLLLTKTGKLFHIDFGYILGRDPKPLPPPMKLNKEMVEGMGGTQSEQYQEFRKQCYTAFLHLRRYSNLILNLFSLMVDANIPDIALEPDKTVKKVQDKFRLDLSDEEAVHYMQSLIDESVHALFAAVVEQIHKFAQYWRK
UniProt Q92609: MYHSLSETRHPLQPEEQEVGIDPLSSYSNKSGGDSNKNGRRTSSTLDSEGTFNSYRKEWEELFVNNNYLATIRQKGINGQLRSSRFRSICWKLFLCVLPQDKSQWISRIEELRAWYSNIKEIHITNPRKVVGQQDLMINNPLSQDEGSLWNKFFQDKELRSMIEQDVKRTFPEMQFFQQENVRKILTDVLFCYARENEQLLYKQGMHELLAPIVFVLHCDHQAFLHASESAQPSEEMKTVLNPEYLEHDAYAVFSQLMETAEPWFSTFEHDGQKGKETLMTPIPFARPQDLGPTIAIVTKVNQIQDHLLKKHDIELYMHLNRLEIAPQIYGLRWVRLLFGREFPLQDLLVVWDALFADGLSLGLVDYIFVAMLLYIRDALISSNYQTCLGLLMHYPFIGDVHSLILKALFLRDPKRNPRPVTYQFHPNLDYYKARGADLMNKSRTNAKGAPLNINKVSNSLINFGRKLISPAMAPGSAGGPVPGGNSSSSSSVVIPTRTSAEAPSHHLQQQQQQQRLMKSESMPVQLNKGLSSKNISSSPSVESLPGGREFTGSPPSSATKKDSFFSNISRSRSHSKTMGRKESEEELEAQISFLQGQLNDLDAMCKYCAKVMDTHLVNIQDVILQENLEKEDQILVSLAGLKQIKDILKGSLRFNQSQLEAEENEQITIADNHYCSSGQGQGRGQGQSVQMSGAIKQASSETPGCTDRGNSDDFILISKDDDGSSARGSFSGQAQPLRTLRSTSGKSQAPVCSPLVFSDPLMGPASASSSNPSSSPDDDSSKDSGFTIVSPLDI
UniProt Q6PF93: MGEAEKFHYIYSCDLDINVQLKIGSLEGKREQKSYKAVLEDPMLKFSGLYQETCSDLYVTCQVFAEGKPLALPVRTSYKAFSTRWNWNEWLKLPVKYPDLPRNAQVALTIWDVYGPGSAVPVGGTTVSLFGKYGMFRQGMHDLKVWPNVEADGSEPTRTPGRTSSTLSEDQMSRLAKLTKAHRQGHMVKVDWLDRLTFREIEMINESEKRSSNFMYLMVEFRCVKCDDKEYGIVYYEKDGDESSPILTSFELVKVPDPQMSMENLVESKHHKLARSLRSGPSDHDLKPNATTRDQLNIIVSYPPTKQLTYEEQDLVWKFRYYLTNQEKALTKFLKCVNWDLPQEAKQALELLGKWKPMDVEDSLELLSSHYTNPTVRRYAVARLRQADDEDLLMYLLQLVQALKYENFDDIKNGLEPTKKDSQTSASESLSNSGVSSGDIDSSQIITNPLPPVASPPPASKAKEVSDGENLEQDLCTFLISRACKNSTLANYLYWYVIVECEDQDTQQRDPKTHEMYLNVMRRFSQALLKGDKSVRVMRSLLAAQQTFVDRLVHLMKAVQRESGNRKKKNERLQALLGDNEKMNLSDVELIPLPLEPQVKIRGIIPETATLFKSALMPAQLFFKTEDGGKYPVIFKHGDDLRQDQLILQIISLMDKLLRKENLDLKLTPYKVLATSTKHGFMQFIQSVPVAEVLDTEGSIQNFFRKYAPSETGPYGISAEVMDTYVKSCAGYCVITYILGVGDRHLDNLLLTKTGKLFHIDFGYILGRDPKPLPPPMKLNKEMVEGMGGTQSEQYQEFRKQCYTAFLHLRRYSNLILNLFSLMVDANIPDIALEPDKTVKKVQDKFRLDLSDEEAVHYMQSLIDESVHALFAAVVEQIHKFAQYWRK

Tests used:
[1] = target: VPS26B, endogenous in 293T cells (human (endogenous in 293T)) (UniProt Q4G0F5); test: co-IP; endogenous proteins in control and Vps34 knockout (CRISPR-Cas9) 293T cells; RIPA lysate with protease inhibitor; 0.5 µg antibody (RAB7, TBC1D5, VPS26B, VPS26A or VPS35) overnight at 4 °C, protein-A/G beads 6 h at 4 °C, washed with cold PBS; Western blot
[2] = target: Vacuolar protein sorting 34 (VPS34), endogenous in 293T cells (human (endogenous in 293T)) (UniProt Q8NEB9); test: co-IP; endogenous protein interactions in 293T cells; RIPA lysate; antibody overnight at 4 °C, protein-A/G beads; Western blot (Figure S5f,g)
[3] = target: TBC1 domain family member 5 (TBC1D5), endogenous in 293T cells (human (endogenous in 293T)) (UniProt Q92609); test: co-IP; endogenous proteins in control and Vps34 knockout (CRISPR-Cas9) 293T cells; RIPA lysate with protease inhibitor; 0.5 µg antibody (RAB7, TBC1D5, VPS26B, VPS26A or VPS35) overnight at 4 °C, protein-A/G beads 6 h at 4 °C, washed with cold PBS; Western blot
[4] = target: VPS26A, endogenous in 293T cells (human (endogenous in 293T)) (UniProt O75436); test: as above
[5] = target: VPS34, endogenous in mouse oocytes (mouse (endogenous in oocytes)) (UniProt Q6PF93); test: co-IP; endogenous proteins in mouse oocytes (1600 oocytes), RIPA lysate; antibody overnight at 4 °C, protein-A/G beads; Western blot (Figure S5h)
[6] = target: VPS34-HA-GST fusion protein (UniProt Q6PF93); test: pull-down; about 100 µg VPS34-HA-GST (or HA-GST) immobilized on 50 µL glutathione agarose; about 100 µg His-RAB7 added, overnight at 4 °C; eluted with 10 mM glutathione in PBS pH 8.0; immunoblot; both purified
[7] = target: RAS-related GTP-binding protein 7 (RAB7), endogenous in 293T cells (human (endogenous in 293T)) (UniProt P51149); test: co-IP; endogenous proteins in control and Vps34 knockout (CRISPR-Cas9) 293T cells; RIPA lysate with protease inhibitor; 0.5 µg antibody (RAB7, TBC1D5, VPS26B, VPS26A or VPS35) overnight at 4 °C, protein-A/G beads 6 h at 4 °C, washed with cold PBS; Western blot

binding [1]: no binding
Substance: TBC1 domain family member 5 (TBC1D5), endogenous in 293T cells (from UniProt Q92609 1-795)

binding [2]: binds | binding [1]: no binding | binding [3]: binds | binding [4]: binds
Substance: RAS-related GTP-binding protein 7 (RAB7), endogenous in 293T cells (from UniProt P51149 1-207)

binding [1]: no binding | binding [7]: binds
Substance: VPS26A, endogenous in 293T cells (from UniProt O75436 1-327)

Second part, the substance before the results:

Substance: RAB7, endogenous in mouse oocytes (from UniProt P51150 1-207)
binding [5]: binds

Substance: RAB7-His protein (from UniProt P51150 1-207)
binding [6]: binds
